The campaign covered roughly 390,000 compounds. About 930 (0.24%) were called active. Inconclusive results, whose numbers are uncertain, are shown with a selection of clear calls. The call rests on the fitted dose curve; in most records, active means well fitted activation curve with a large enough effect; inconclusive means small, poorly fitted or top-dose-only effect; inactive means no such curve, though single readings can be large or run the other way. Where the call is inconclusive, the potency comes from a doubtful curve fit.
Assay: qHTS for Suppressors of FUS Proteinopathy: Primary screen using FUS-linked yeast assay; further: nearly all actives have a fitted effect of over 55% in size;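 on growth rescue (activation): plate controls were DMSO vehicle for no effect and reference control for full effect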
Conditions: S. cerevisiae FUS-expressing, OD600, 24 h; Potency: growth rescue; growth rescue (activation): at 76.6 µM (top of the series)
Outline: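 Absorbance at 600 nm, taken 24hr after compound addition, measured rescue of FUS-yeast growth at 30C. Induction used 2% galactose with seeding at OD 0.005. Controls: CP55940 from 92uM final, DMSO only.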
Potency means the concentration at half of the fitted maximal effect; tags describe the fitted curve by direction and shape.

**Q.** For `COc1ccc(N(CC(=O)Nc2ccc(C)cc2C)S(=O)(=O)c2ccccc2[N+](=O)[O-])c(OC)c1`, which Potency is on record?
**A.** inconclusive: 44.7 µM [activator, single point]

**Q.** Which “growth rescue (activation)” value does the source give for `Cc1cccc(NC(=O)CSc2nnc(SCc3ccc(Cl)cc3)s2)c1` here?
**A.** inactive: 4.75%

**Q.** Which Potency does the source give for `Cc1ccc(Cl)c(OCC(=O)Nc2cc(S(=O)(=O)N3CCOCC3)ccc2N2CCCC2)c1` here?
**A.** inconclusive: 22.4 µM [activator, single point]

**Q.** With `CC(C)C[C@H]1COc2cc(Br)ccc2S(=O)(=O)N1Cc1cn(CCC2OCCO2)nn1` as the molecule, how does the “growth rescue (activation)” value read?
**A.** inactive: -0.676%

**Q.** With `CCOC(=O)c1c(C)[nH]c(C)c1C(=O)CN1C(=O)NC2(CCCCCC2)C1=O` as the molecule, how does the “growth rescue (activation)” value read?
**A.** inactive: 8.55%

**Q.** With `CC(C)CCCC(C)NC(=O)c1cc(S(=O)(=O)N2CCCCC2)ccc1N1CCOCC1` (configuration not stated) as the molecule, how does the Potency read?
**A.** inconclusive: 28.2 µM [activator, single point]

**Q.** Which Potency does the source give for `COc1ccc(S(=O)(=O)N(CC(=O)Nc2ccc(OC)cc2OC)c2ccc(Cl)cc2)cc1` here?
**A.** inconclusive: 10 µM [activator, partial curve]

**Q.** Which Potency does the source give for `CN(C)S(=O)(=O)c1ccc(C(=O)NCCN2C(=O)S/C(=C\c3cccnc3)C2=O)cc1` here?
**A.** inconclusive: 14.1 µM [activator, partial curve, poor fit]

**Q.** With `O=[N+]([O-])c1ccc(S(=O)(=O)NCC(c2ccco2)N2CCc3ccccc3C2)cc1` (configuration not stated) as the molecule, how does the “growth rescue (activation)” value read?
**A.** inactive: 6.22%

**Q.** For `COc1ccc(-c2oc(=O)c3cc(OC)c(OC)cc3c2-c2cc(F)cc(OC)c2)cc1`, which Potency is on record?
**A.** inconclusive: 25.1 µM [activator, partial curve, poor fit]

**Q.** For `CC(=O)Nc1cccc(NC(=O)CSc2nnc(Cc3cccn3C)n2CCc2ccccc2)c1`, which Potency is on record?
**A.** inconclusive: 39.8 µM [activator, partial curve, poor fit]

**Q.** With `COC(=O)c1ccc2c(C)c(C3(O)CCCCC3)[nH]c2c1` as the molecule, how does the “growth rescue (activation)” value read?
**A.** inactive: -1.76%

**Q.** Which Potency does the source give for `CCCCn1c(N)c(N(CC(C)C)C(=O)CSc2n[nH]c(-c3ccc(C)cc3)n2)c(=O)[nH]c1=O` here?
**A.** inconclusive: 31.6 µM [activator, single point]

**Q.** With `O=S(=O)(c1ccc(-c2csc(=Nc3ccc(OC(F)(F)Cl)cc3)n2CCCO)cc1)N1CCCC1` as the molecule, how does the Potency read?
**A.** inconclusive: 25.1 µM [activator, partial curve, poor fit]

**Q.** Which Potency does the source give for `COc1ccc(-n2c(=S)[nH]c3cc(C(=O)NCc4cccnc4)ccc3c2=O)c(OC)c1` here?
**A.** inconclusive: 2.82 µM [activator, full curve, poor fit]

**Q.** With `NC(=O)c1c(NC(=O)c2ccc(F)cc2)sc2c1CCC2` as the molecule, how does the “growth rescue (activation)” value read?
**A.** inactive: 24.5%

**Q.** For `COc1ccc(Cl)cc1NC(=O)CN(C)C(=O)c1sc2ccccc2c1Cl`, which Potency is on record?
**A.** inconclusive: 20 µM [activator, single point]
